In all, about 48,000 compounds went through this assay and about 550 (1.1%) were called active. About 4% were inconclusive and are not listed. Rule as the data show it: active = potency below about 15 µM; inconclusive = mostly about 16 µM to 33 µM; inactive = weaker than that. The list shows a part of the results.
The molecules below were run against Lysosomal acid glucosylceramidase (Homo sapiens) (UniProt P04062) (assay: Glucocerebrosidase). Conditions: purified enzyme, resorufin glucoside fluorescence (screen aimed at inhibitors), 20 min.
Chain of UniProt P04062 (P04062 whole entry, looked up): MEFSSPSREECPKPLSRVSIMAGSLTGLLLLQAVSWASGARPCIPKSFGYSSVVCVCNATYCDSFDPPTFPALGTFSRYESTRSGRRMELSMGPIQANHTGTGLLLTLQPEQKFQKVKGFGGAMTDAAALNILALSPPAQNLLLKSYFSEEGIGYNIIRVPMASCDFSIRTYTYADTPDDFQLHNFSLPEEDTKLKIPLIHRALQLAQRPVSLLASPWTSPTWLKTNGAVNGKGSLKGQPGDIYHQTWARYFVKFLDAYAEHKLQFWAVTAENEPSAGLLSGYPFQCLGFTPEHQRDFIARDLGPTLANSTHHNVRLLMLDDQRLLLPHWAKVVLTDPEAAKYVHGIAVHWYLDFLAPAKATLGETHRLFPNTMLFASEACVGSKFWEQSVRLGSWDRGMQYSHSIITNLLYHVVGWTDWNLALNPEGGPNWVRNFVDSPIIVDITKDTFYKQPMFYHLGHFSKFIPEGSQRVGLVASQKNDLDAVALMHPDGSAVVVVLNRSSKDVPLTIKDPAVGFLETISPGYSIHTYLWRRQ
Outline: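 Normal human glucocerebrosidase (0.2 nM final) was assayed with resorufin β-D-glucopyranoside (30 uM final) in 50mM citric acid/KH2PO4, 10mM sodium taurocholate, 0.01% tween-20, pH 5.9. Compounds were titrated; fluorescence (Ex 548, Em 600) read after 20 min at RT.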
With `CC(=O)N1CCN(C(=O)CNc2cc(C(F)(F)F)ccc2OCC(F)(F)F)CC1` the Potency was inactive: > 76.9 µM. With `CC1CCCCC1NC(=O)Cn1nnc(-c2ccc(Cl)cc2)n1` (stereo unspecified) the Potency was inactive: > 76.9 µM. For `COCC(=O)Nc1nnc(CCc2ccccc2)s1`, the Potency was inactive: > 76.9 µM. For `CCOC(=O)Cn1nnnc1C(CC)N(Cc1cccs1)Cc1cc2ccc(OC)cc2[nH]c1=O` (stereo unspecified), the Potency was inactive: > 76.9 µM. In the case of `CC(=O)OC(C(=O)NC1CCCCC1)c1ccc(C)cc1` (stereo unspecified), the Potency is reported as inactive: > 76.9 µM. For `COC(=O)c1ccc(NC(=O)C2C3C=CC(O3)C2C(=O)O)cc1` (stereo unspecified), the Potency was inactive: > 76.9 µM. With `CCOc1cc(C)c(S(=O)(=O)N2CCCC2)cc1C` the Potency was inactive: > 76.9 µM. For `CC(=O)Nc1ccc2c(c1)n(C)c(=O)n2C`, the Potency was inactive: > 76.9 µM. For `Cc1ccc(S(=O)(=O)N2CCN(C(=O)CSC3CCCC3)CC2)c(C)c1`, the Potency was inactive: > 15.4 µM. With `CCOC(=O)CC(N)c1ccc2c(c1)OCO2` (stereo unspecified) the Potency was inactive: > 76.9 µM. In the case of `O=C(c1cc(-c2cccnc2)nc2ccc(Br)cc12)N1CCN(c2ncccn2)CC1`, the Potency is reported as inactive: > 76.9 µM. For `COc1ccc(C2OC(=O)CC2C(=O)NC(C)C)cc1` (stereo unspecified), the Potency was inactive: > 76.9 µM. With `CCn1cc(C(=O)OCC(=O)Nc2ccc(S(=O)(=O)N3CCCC3)cc2)c(=O)c2ccc(C)nc21` the Potency was inactive: > 76.9 µM. With `CCOC(=O)Cn1c(=O)n(Cc2ccco2)c(=O)c2ccc(C(=O)NCCc3ccccc3)cc21` the Potency was inactive: > 76.9 µM. `Nc1cc(N)nc(SCC(=O)NCC2CCCO2)n1` (stereo unspecified) was tested, and the Potency was inactive: > 76.9 µM. `CCC(O)CNc1nc(SC)nc2sc3c(c12)CCN(C)C3` (stereo unspecified) was tested, and the Potency was inactive: > 76.9 µM. `CCN(CC)P(=O)(/C(Cl)=C\Nc1c(C)n(C)n(-c2ccccc2)c1=O)N(CC)CC` was tested, and the Potency was inactive: > 76.9 µM. In the case of `COCCCN=C(c1ccco1)n1c(=S)nc(-c2ccco2)n(CCCOC)c1=S`, the Potency is reported as inactive: > 76.9 µM. `COc1cc(C)c(Cl)cc1S(=O)(=O)NCc1ccco1` was tested, and the Potency was inactive: > 76.9 µM. `COCCn1c(N2CCN(c3ccc(OC)cc3)CC2)nc2c1c(=O)n(C)c(=O)n2C` was tested, and the Potency was inactive: > 76.9 µM. For `O=C(NC1CCN(Cc2ccccc2)CC1)C1COc2ccccc2O1` (stereo unspecified), the Potency was inactive: > 76.9 µM. With `CC(=O)Nc1nonc1C(=O)N1CCC(C)CC1` the Potency was inactive: > 76.9 µM. With `CCOC(=O)CCS(=O)(=O)c1nc(-c2ccccc2)cc(C(F)(F)F)n1` the Potency was inactive: > 76.9 µM. For `Nc1nnnn1NCc1cccc(OCc2ccccc2)c1`, the Potency was inactive: > 76.9 µM. For `NC(=O)Cn1c(S(=O)(=O)Cc2ccccc2)nc2ccccc21`, the Potency was inactive: > 76.9 µM. `COc1cccc(-c2nc(=S)c3c(n2Cc2ccco2)CCCC3)c1` was tested, and the Potency was inactive: > 76.9 µM. In the case of `CC(C)C1N=C2c3ccccc3N=C(SCC#N)N2C1=O` (stereo unspecified), the Potency is reported as inactive: > 76.9 µM. In the case of `NC(=O)CCn1nc(-c2ccc(Cl)cc2)c2ccccc2c1=O`, the Potency is reported as inactive: > 76.9 µM. For `CCOc1ccccc1N1CCN(S(=O)(=O)c2ccc(F)c(F)c2)CC1`, the Potency was inactive: > 76.9 µM. For `COc1ccc(C(C)NC(=O)C2C(=O)NC3(C)CC2c2ccccc2O3)cc1` (stereo unspecified), the Potency was inactive: > 76.9 µM. `Cc1ccc(NCc2nnc(SCC(=O)Nc3ncc(C)s3)n2Cc2ccco2)c(C)c1` was tested, and the Potency was inactive: > 76.9 µM. `CCOCC(=O)N1CCCC(C(=O)OCC)C1` (stereo unspecified) was tested, and the Potency was inactive: > 76.9 µM. `COc1cc(C2=NOC(C(=O)N3CCCc4ccccc43)C2)cc(OC)c1OC` (stereo unspecified) was tested, and the Potency was inactive: > 76.9 µM. With `COc1ccc2oc(=O)c(C(=O)N3CCN(c4ccc(F)cc4)CC3)cc2c1` the Potency was inactive: > 76.9 µM. `CNc1nn(-c2cccc(Cl)c2)nc1N` was tested, and the Potency was inactive: > 76.9 µM. `Cc1ccn(CCSCC(=O)O)n1` was tested, and the Potency was inactive: > 76.9 µM. `CCCc1nc(NC(C)=O)c(C#N)c(-c2ccco2)c1CC` was tested, and the Potency was inactive: > 76.9 µM. With `Cc1csc(NC(=O)c2cccs2)n1` the Potency was inactive: > 76.9 µM. With `COCc1nnc(NC(=O)C(C)C)s1` the Potency was inactive: > 76.9 µM. With `Cn1c(NC(=O)c2ccco2)c(-c2ccccc2Cl)c(=O)c2ccccc21` the Potency was inactive: > 76.9 µM. For `CCOc1ccc2nc(COC(=O)c3ccco3)c(C(C)=O)[n+]([O-])c2c1`, the Potency was inactive: > 76.9 µM. For `O=C1c2ccccc2C(=O)N1CCCCn1c(=O)oc2ccccc21`, the Potency was inactive: > 76.9 µM. `CCOc1cc(-c2noc(CCC(=O)Nc3cccnc3)n2)ccc1OC` was tested, and the Potency was inactive: > 76.9 µM. In the case of `CC(C)Oc1ccc(CSc2nnc3n(C)c(=O)c4c5c(sc4n23)CCCC5)cc1`, the Potency is reported as inactive: > 76.9 µM. With `CCn1c(SCC(=O)Nc2cc(NC(C)=O)ccc2OC)nnc1-c1ccncc1` the Potency was inactive: > 76.9 µM. `COCCNC(=O)c1cc(Br)ccc1Cl` was tested, and the Potency was inactive: > 76.9 µM. With `COc1ccc(CC(NC(C)=O)C(=O)N2CCN(C(=O)Nc3ccc(Cl)cc3)CC2)cc1OC` (stereo unspecified) the Potency was inactive: > 76.9 µM. With `Cc1[nH]c2ccccc2c1NC(=O)CN1CCN(Cc2ccc3c(c2)OCO3)CC1` the Potency was inactive: > 76.9 µM. With `N#Cc1c(NC(=O)CSc2nnc(-c3ccccc3O)n2-c2ccccc2)sc2c1CCCC2` the Potency was active: 10 µM. In the case of `CCOc1ccc(-c2nnc(NC(=O)c3ccc(OCC(C)C)c(OC)c3)o2)cc1`, the Potency is reported as inactive: > 76.9 µM. `CCOC(=O)N1CCN(c2ncnc3c2oc2nc(C)c4c(c23)CC(C)(C)OC4)CC1` was tested, and the Potency was inactive: > 76.9 µM. With `COC(=O)c1cnn2c(C(F)(F)F)cc(-c3ccco3)nc12` the Potency was inactive: > 76.9 µM. `Cc1cccc(N(C(=O)CNC(=O)c2ccco2)C(C(=O)NC2CCCC2)c2cccnc2)c1` (stereo unspecified) was tested, and the Potency was inactive: > 76.9 µM. `COc1ccccc1N1C(=O)CC(Sc2ncccc2C(=O)O)C1=O` (stereo unspecified) was tested, and the Potency was inactive: > 76.9 µM. For `Cc1cccc(C)c1NC(=O)C(c1ccccc1)N1CCN(C(=O)c2ccco2)CC1` (stereo unspecified), the Potency was inactive: > 76.9 µM. With `O=C(c1c(Cl)nc2sccn12)N(C(=O)c1c(Cl)nc2sccn12)c1ccc(Cl)cn1` the Potency was inactive: > 76.9 µM. `Cc1cccc(C)c1OCC(=O)NCc1nnc(SCC(=O)NC2CCCCC2C)n1C` (stereo unspecified) was tested, and the Potency was inactive: > 76.9 µM. For `CCOC(=O)NC(=O)CSc1nnc(C)s1`, the Potency was inactive: > 76.9 µM. With `Nc1csnc1C(=O)O` the Potency was inactive: > 76.9 µM. `CCCn1nnnc1NCc1cccn1C` was tested, and the Potency was inactive: > 76.9 µM. With `CC1(C)Cc2ccccc2-c2nnc(SCC(=O)N3CCc4ccccc43)n21` the Potency was inactive: > 76.9 µM. For `O=C(NCc1ccccc1Cl)C1CCN(S(=O)(=O)N2CCCCCC2)CC1`, the Potency was inactive: > 76.9 µM. `Cc1csc(NC(=O)CSc2nnc(-c3ccoc3C)n2Cc2ccco2)n1` was tested, and the Potency was inactive: > 76.9 µM. In the case of `CC(C)C(=O)Nc1ccc(N2CCN(S(C)(=O)=O)CC2)cc1`, the Potency is reported as inactive: > 76.9 µM. In the case of `COc1ccc(S(=O)(=O)Nc2cc(C)c(O)c(S(=O)(=O)c3ccccc3)c2)cc1`, the Potency is reported as inactive: > 76.9 µM. For `CN(C)C(=O)c1cc(S(=O)(=O)N(C)C)c(Cl)cc1N1CCCC1`, the Potency was inactive: > 76.9 µM. For `CCCCOC(=O)n1c(=O)oc2ccccc21`, the Potency was inactive: > 76.9 µM. `CCOC(=O)COc1nc(Nc2ccccc2C)nc(N(C)C)n1` was tested, and the Potency was inactive: > 76.9 µM. With `O=C(CN1C(=O)CCS(=O)(=O)c2ccccc21)NCc1ccc(F)cc1` the Potency was inactive: > 76.9 µM. With `Nc1nnc(-c2ccccc2)c(-c2ccccc2)n1` the Potency was inactive: > 76.9 µM. In the case of `Cn1c(SCc2ccc(Br)cc2)nnc1-c1cccs1`, the Potency is reported as inactive: > 76.9 µM. For `COc1ccccc1OCCC(=O)OCC(=O)Nc1ncc(Cl)cc1Cl`, the Potency was inactive: > 76.9 µM. `Cc1ccc(CN2C(=O)CCC2C(=O)NC2CCCC2)cc1` (stereo unspecified) was tested, and the Potency was inactive: > 76.9 µM. `O=c1[nH]c(NCCO)nc2c1C1(CCCCC1)Cc1ccccc1-2` was tested, and the Potency was inactive: > 76.9 µM. For `CCC(C)NC(=O)N[C@@H](Cc1ccccc1)C(=O)O` (stereo partly specified), the Potency was inactive: > 76.9 µM. In the case of `N#Cc1cc(N)c(Nc2ccccc2)cc1C#N`, the Potency is reported as “inactive”. With `O=C(CSc1nnc(Cc2cc(=O)[nH]c(=O)[nH]2)n1-c1ccccc1)NCC1CCCO1` (stereo unspecified) the Potency was inactive: > 76.9 µM. For `CC(C)CCn1cnc2c1c(=O)n(C)c(=O)n2C`, the Potency was inactive: > 76.9 µM. `C/C(N)=C(/C#N)C(=O)CSc1nnc(COc2ccccc2Cl)o1` was tested, and the Potency was inactive: > 76.9 µM. With `CC12CCC(C(=O)NCc3ccccn3)(OC1=O)C2(C)C` (stereo unspecified) the Potency was inactive: > 76.9 µM. In the case of `O=C(c1cc(-c2ccccc2)on1)N1CCN(Cc2ccc3c(c2)OCO3)CC1`, the Potency is reported as inactive: > 76.9 µM. `CCOC(=O)NC(NC(=O)OCC)C(=O)c1ccccc1` was tested, and the Potency was inactive: > 76.9 µM. In the case of `c1ccc2c(c1)nc(Nc1ccc3c(c1)OCO3)c1nnnn12`, the Potency is reported as inactive: > 76.9 µM. In the case of `O=C(NCCCN1CCCC1=O)C1CCN(S(=O)(=O)N2CCOCC2)CC1`, the Potency is reported as inactive: > 76.9 µM. `O=C(COn1nnc2ccccc21)NCC1CCCCC1` was tested, and the Potency was inactive: > 76.9 µM. In the case of `COc1ccc(CCN(Cc2cc3cc(C)ccc3[nH]c2=O)C(=O)N2CCCC2)cc1OC`, the Potency is reported as inactive: > 76.9 µM. For `COc1cccc(C2=NOC(C(=O)N3CCN(Cc4ccccc4)CC3)C2)c1OC` (stereo unspecified), the Potency was inactive: > 76.9 µM. In the case of `CCOCCCn1c(C)nc2c(c1=O)c1nc3ccccc3nc1n2-c1ccc(C)cc1`, the Potency is reported as inactive: > 76.9 µM. In the case of `Brc1ccc(-c2nc(-c3ccncc3)no2)o1`, the Potency is reported as inactive: > 76.9 µM. With `O=C(Cc1n[nH]c(=O)c2ccccc12)NCc1ccccn1` the Potency was inactive: > 76.9 µM. With `CCN1CCN(S(=O)(=O)c2cc(OC)ccc2OC)CC1` the Potency was inactive: > 76.9 µM.

Reference: PubChem BioAssay AID360 (National Center for Advancing Translational Sciences (NCATS), 2006)
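Also: the screen sought inhibitors.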
Potency is read from the fitted curve at half-maximal effect.
